# Measurements from the supplement of paper PMC10037445.
# “And” between values parts separate entries of the source, which are not always exact repeats. Equal entries are not always repeated. ± gives the standard deviation of the averaged measurements. In all, about 2,900 compounds were measured (“NF-kB SEAP reporter activity, fold change vs agonist alone”: median about 0.99, highest 2% from about 2.6 on). This is one part of the list.
# Legend:
# RAW-Dual [1] = experiment: NF-kB SEAP reporter activity, fold change vs agonist alone; cytotoxicity flag (confluency mask): cytotoxic (confluency <70% of control); higher = enhanced NF-kB activity
# In short: (§1)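 Library stock was pin-tooled at 50 nL into 384-well plates of RAW-Dual macrophages (50,000 cells/well, DMEM), followed 1 h later by a PRR agonist, and the cells were kept at 37 °C, 5% CO2. Supernatant collected after 20 hours was read for IRF by QuantiLuc luminescence and for NF-κB by QuantiBlue absorbance at 620 nm. Reporter activity is fold change over agonist-alone wells, and a well counted as cytotoxic when its IncuCyte confluency was below 70% of agonist controls in both mask sets.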
# RAW-Dual [2] = experiment: NF-kB SEAP reporter activity, fold change vs agonist alone; higher = enhanced NF-kB activity; settings: library stock concentration (final ~1000-fold dilution): 10 mM
# In short: as §1
# RAW-Dual [3] = experiment: NF-kB SEAP reporter activity, fold change vs agonist alone; cytotoxicity flag (confluency mask): not cytotoxic; higher = enhanced NF-kB activity
# In short: as §1
# [4] = cytotoxicity flag (confluency mask): not cytotoxic, agonist: Imiquimod (TLR7) […]
# [5] = cytotoxicity flag (confluency mask): not cytotoxic, agonist: MPLA (TLR4) […]
# [6] = agonist: ODN 1826 (TLR9) 0.5 ug/mL
# [7] = agonist: Pam2CSK4 (TLR2/6) 0.1 ug/mL
# [8] = agonist: Pam3CSK4 (TLR2/1) 0.1 ug/mL
# [9] = cytotoxicity flag (confluency mask): cytotoxic (confluency <70% of control), agonist: Imiquimod (TLR7) […]
# [10] = cytotoxicity flag (confluency mask): cytotoxic (confluency <70% of control), agonist: MPLA (TLR4) […]
structure (smiles),measurement,setting,value
O=C(CCCCCCNC(=O)c1cnc(N(c2ccccc2)c2ccccc2Cl)nc1)NO (library stock concentration (final ~1000-fold dilution): 10 mM),NF-kB SEAP reporter activity,RAW-Dual [1]; agonist: LPS (TLR4) 0.1 ug/mL,4.23
COc1cc(O)c2c(=O)cc(-c3ccc(O)c(O)c3)oc2c1,NF-kB SEAP reporter activity,RAW-Dual [2]; [4],0.999
same,NF-kB SEAP reporter activity,RAW-Dual [2]; [5],1.34
COc1cc(O)c2c(=O)cc(-c3ccc(O)c(O)c3)oc2c1 (library stock concentration (final ~1000-fold dilution): 10 mM),NF-kB SEAP reporter activity,RAW-Dual [3]; agonist: LPS (TLR4) 0.1 ug/mL,1.06
same,NF-kB SEAP reporter activity,RAW-Dual [3]; [6],0.594
same,NF-kB SEAP reporter activity,RAW-Dual [3]; [7],0.635
same,NF-kB SEAP reporter activity,RAW-Dual [3]; [8],0.656
Br.Cc1ccc(C(=O)Cn2c3c(sc2=N)CCCC3)cc1,NF-kB SEAP reporter activity,RAW-Dual [2]; [4],0.951
same,NF-kB SEAP reporter activity,RAW-Dual [2]; [5],1.1
Br.Cc1ccc(C(=O)Cn2c3c(sc2=N)CCCC3)cc1 (library stock concentration (final ~1000-fold dilution): 10 mM),NF-kB SEAP reporter activity,RAW-Dual [3]; agonist: LPS (TLR4) 0.1 ug/mL,1.32
same,NF-kB SEAP reporter activity,RAW-Dual [3]; [6],0.81
same,NF-kB SEAP reporter activity,RAW-Dual [3]; [7],0.953
same,NF-kB SEAP reporter activity,RAW-Dual [3]; [8],1.08
COc1cc2c3cc1Oc1c(OC)c(OC)cc4c1C(Cc1ccc(O)c(c1)Oc1ccc(cc1)CC3N(C)CC2)N(C)CC4 (stereo unspecified),NF-kB SEAP reporter activity,RAW-Dual [2]; [4],0.193
same,NF-kB SEAP reporter activity,RAW-Dual [2]; [5],1.54
COc1cc2c3cc1Oc1c(OC)c(OC)cc4c1C(Cc1ccc(O)c(c1)Oc1ccc(cc1)CC3N(C)CC2)N(C)CC4 (stereo unspecified) (library stock concentration (final ~1000-fold dilution): 10 mM),NF-kB SEAP reporter activity,RAW-Dual [3]; agonist: LPS (TLR4) 0.1 ug/mL,0.829
same,NF-kB SEAP reporter activity,RAW-Dual [3]; [6],0.17
same,NF-kB SEAP reporter activity,RAW-Dual [3]; [7],0.707
same,NF-kB SEAP reporter activity,RAW-Dual [3]; [8],1.01
C=CC(=O)Nc1ccc2ncnc(Nc3cccc(Br)c3)c2c1,NF-kB SEAP reporter activity,RAW-Dual [2]; [4],1.14
same,NF-kB SEAP reporter activity,RAW-Dual [2]; [5],0.269
C=CC(=O)Nc1ccc2ncnc(Nc3cccc(Br)c3)c2c1 (library stock concentration (final ~1000-fold dilution): 10 mM),NF-kB SEAP reporter activity,RAW-Dual [3]; agonist: LPS (TLR4) 0.1 ug/mL,0.22
same,NF-kB SEAP reporter activity,RAW-Dual [3]; [6],0.413
same,NF-kB SEAP reporter activity,RAW-Dual [3]; [7],0.756
same,NF-kB SEAP reporter activity,RAW-Dual [3]; [8],0.41
CCC(=O)c1c(O)cc(O)cc1O (library stock concentration (final ~1000-fold dilution): 10 mM),NF-kB SEAP reporter activity,RAW-Dual [3]; agonist: LPS (TLR4) 0.1 ug/mL,1.34
same,NF-kB SEAP reporter activity,RAW-Dual [3]; [6],1.04
same,NF-kB SEAP reporter activity,RAW-Dual [3]; [7],1.3
same,NF-kB SEAP reporter activity,RAW-Dual [3]; [8],0.994
CCC(=O)c1c(O)cc(O)cc1O,NF-kB SEAP reporter activity,RAW-Dual [2]; [4],0.854
same,NF-kB SEAP reporter activity,RAW-Dual [2]; [5],1.02
CCc1c(C)[nH]c2c1C(=O)C(CN1CCOCC1)CC2.Cl (stereo unspecified),NF-kB SEAP reporter activity,RAW-Dual [2]; [5],1.03
CCc1c(C)[nH]c2c1C(=O)C(CN1CCOCC1)CC2.Cl (stereo unspecified) (library stock concentration (final ~1000-fold dilution): 10 mM),NF-kB SEAP reporter activity,RAW-Dual [3]; agonist: LPS (TLR4) 0.1 ug/mL,0.951
same,NF-kB SEAP reporter activity,RAW-Dual [3]; [6],1.17
same,NF-kB SEAP reporter activity,RAW-Dual [3]; [7],0.961
same,NF-kB SEAP reporter activity,RAW-Dual [3]; [8],1.01
COc1c(O)c(C)cc2c1C(=O)c1c(O)cccc1C2=O,NF-kB SEAP reporter activity,RAW-Dual [2]; [4],0.981
same,NF-kB SEAP reporter activity,RAW-Dual [2]; [5],1.08
COc1c(O)c(C)cc2c1C(=O)c1c(O)cccc1C2=O (library stock concentration (final ~1000-fold dilution): 10 mM),NF-kB SEAP reporter activity,RAW-Dual [3]; agonist: LPS (TLR4) 0.1 ug/mL,1.19
same,NF-kB SEAP reporter activity,RAW-Dual [3]; [6],1.02
same,NF-kB SEAP reporter activity,RAW-Dual [3]; [7],1.04
same,NF-kB SEAP reporter activity,RAW-Dual [3]; [8],1.01
CN1CCN(CCOc2cc(OC3CCOCC3)c3c(Nc4c(Cl)ccc5c4OCO5)ncnc3c2)CC1,NF-kB SEAP reporter activity,RAW-Dual [2]; [9],2.07
same,NF-kB SEAP reporter activity,RAW-Dual [2]; [10],1.88
CN1CCN(CCOc2cc(OC3CCOCC3)c3c(Nc4c(Cl)ccc5c4OCO5)ncnc3c2)CC1 (library stock concentration (final ~1000-fold dilution): 10 mM),NF-kB SEAP reporter activity,RAW-Dual [1]; agonist: LPS (TLR4) 0.1 ug/mL,0.942
same,NF-kB SEAP reporter activity,RAW-Dual [1]; [6],0.219
same,NF-kB SEAP reporter activity,RAW-Dual [1]; [7],0.616
same,NF-kB SEAP reporter activity,RAW-Dual [1]; [8],0.829
O=C(NCC1CN(c2ccc(N3CCOCC3=O)cc2)C(=O)O1)c1ccc(Cl)s1 (stereo unspecified),NF-kB SEAP reporter activity,RAW-Dual [2]; [4],1.04
same,NF-kB SEAP reporter activity,RAW-Dual [2]; [5],1.01
O=C(NCC1CN(c2ccc(N3CCOCC3=O)cc2)C(=O)O1)c1ccc(Cl)s1 (stereo unspecified) (library stock concentration (final ~1000-fold dilution): 10 mM),NF-kB SEAP reporter activity,RAW-Dual [3]; agonist: LPS (TLR4) 0.1 ug/mL,1.04
same,NF-kB SEAP reporter activity,RAW-Dual [3]; [6],1.07
same,NF-kB SEAP reporter activity,RAW-Dual [3]; [7],1.04
same,NF-kB SEAP reporter activity,RAW-Dual [3]; [8],1.25
Nc1ccc(S(=O)(=O)Nc2ccnn2-c2ccccc2)cc1,NF-kB SEAP reporter activity,RAW-Dual [2]; [4],1.05
same,NF-kB SEAP reporter activity,RAW-Dual [2]; [5],1.04
Nc1ccc(S(=O)(=O)Nc2ccnn2-c2ccccc2)cc1 (library stock concentration (final ~1000-fold dilution): 10 mM),NF-kB SEAP reporter activity,RAW-Dual [3]; agonist: LPS (TLR4) 0.1 ug/mL,1.01
same,NF-kB SEAP reporter activity,RAW-Dual [3]; [6],0.97
same,NF-kB SEAP reporter activity,RAW-Dual [3]; [7],1.06
same,NF-kB SEAP reporter activity,RAW-Dual [3]; [8],1
Cc1ccc(NC(=O)c2ccc(CN3CCC(N(C)C)C3)c(C(F)(F)F)c2)cc1Nc1nccc(-c2cncnc2)n1 (stereo unspecified),NF-kB SEAP reporter activity,RAW-Dual [2]; [9],2.42
same,NF-kB SEAP reporter activity,RAW-Dual [2]; [10],1.36
Cc1ccc(NC(=O)c2ccc(CN3CCC(N(C)C)C3)c(C(F)(F)F)c2)cc1Nc1nccc(-c2cncnc2)n1 (stereo unspecified) (library stock concentration (final ~1000-fold dilution): 10 mM),NF-kB SEAP reporter activity,RAW-Dual [1]; agonist: LPS (TLR4) 0.1 ug/mL,0.247
same,NF-kB SEAP reporter activity,RAW-Dual [1]; [6],0.833
same,NF-kB SEAP reporter activity,RAW-Dual [1]; [7],1.4
same,NF-kB SEAP reporter activity,RAW-Dual [1]; [8],1.16
CCOCC(O)COc1ccc(NC(=O)CC[S+](C)C)cc1 (stereo unspecified) (library stock concentration (final ~1000-fold dilution): 10 mM),NF-kB SEAP reporter activity,RAW-Dual [3]; agonist: LPS (TLR4) 0.1 ug/mL,1.37
same,NF-kB SEAP reporter activity,RAW-Dual [3]; [6],1.46
same,NF-kB SEAP reporter activity,RAW-Dual [3]; [7],1.75
same,NF-kB SEAP reporter activity,RAW-Dual [3]; [8],2.02
CCOCC(O)COc1ccc(NC(=O)CC[S+](C)C)cc1 (stereo unspecified),NF-kB SEAP reporter activity,RAW-Dual [2]; [4],1.33
same,NF-kB SEAP reporter activity,RAW-Dual [2]; [5],1.23
O=C(NCCCNc1nc(Nc2cccc(CN3CCOCC3)c2)ncc1C1CC1)C1CCC1 (library stock concentration (final ~1000-fold dilution): 10 mM),NF-kB SEAP reporter activity,RAW-Dual [3]; agonist: LPS (TLR4) 0.1 ug/mL,3.77 ± 1.8
same,NF-kB SEAP reporter activity,RAW-Dual [3]; [8],4.25 and 3.71
CC12CCC(CC1)C(C)(C)O2 (library stock concentration (final ~1000-fold dilution): 10 mM),NF-kB SEAP reporter activity,RAW-Dual [3]; agonist: LPS (TLR4) 0.1 ug/mL,0.942
same,NF-kB SEAP reporter activity,RAW-Dual [3]; [6],0.982
same,NF-kB SEAP reporter activity,RAW-Dual [3]; [7],1.06
same,NF-kB SEAP reporter activity,RAW-Dual [3]; [8],1.11
CC12CCC(CC1)C(C)(C)O2,NF-kB SEAP reporter activity,RAW-Dual [2]; [4],0.906
same,NF-kB SEAP reporter activity,RAW-Dual [2]; [5],1.01
COc1ccc2cc(C(C)C(=O)O)ccc2c1 (stereo unspecified),NF-kB SEAP reporter activity,RAW-Dual [2]; [4],0.931
